Measured values as given in the supplement of paper PMC4967469.
pIC50: −log10 of the molar value. A lower IC50 marks a more sensitive line; a fit beyond the top or the lowest dose is shown as a bound at that dose. The AUC spans the tested range (256-fold, ending at the top dose) of the same fit; the more sensitive the line, the further below 1. For some assays here: Any top dose called inferred was calculated from the reported fits.

What was measured:
Experiment in all cases: Viability of human cancer cell lines after 72 h of drug (GDSC screen)
[1] = compound: CCC1=C[C@@H]2CN(C1)Cc1c([nH]c3ccccc13)[C@@](C(=O)OC)(c1cc3c(cc1OC)N(C)[C@H]1[C@@](O)(C(=O)OC)[C@H](OC(C)=O)[C@]4(CC)C=CCN5CC[C@]31[C@@H]54)C2 [Vinorelbine]; conditions: top dose 0.064 µM; top dose inferred
Protocol: (§1)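 Human cancer cell lines in 384-well plates, medium with 10% serum, drug for 72 h over a 256-fold dose range (nine 2-fold or five 4-fold steps up to the top dose). Adherent lines were fixed and stained with the nucleic acid dye Syto60, suspension lines read with resazurin; signal relative to control wells, capped at 0 and 100%. One two-parameter sigmoid per drug and line, fitted in a mixed model over all curves with the slope shared within a line.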

[2] = compound: N=C(N)NC(=N)NCCc1ccccc1 [Phenformin]; conditions: top dose 4000 µM; top dose inferred
Protocol: as §1

[3] = compound: COc1cc2ncnc(Nc3ccc(F)c(Cl)c3)c2cc1OCCCN1CCOCC1 [Gefitinib]; conditions: top dose 0.5 µM
Protocol: as §1

[4] = compound: COc1cc2nccc(Oc3ccc(NC(=O)C4(C(=O)Nc5ccc(F)cc5)CC4)cc3)c2cc1OC [XL-184]; conditions: top dose 5.12 µM; top dose inferred
Protocol: as §1

[5] = compound: O=c1cc(N2CCOCC2)oc2c(-c3cccc4c3sc3ccccc34)cccc12 [NU-7441]; conditions: top dose 2 µM; top dose inferred
Protocol: as §1

[6] = compound: C=CC(=O)Nc1cc(NC(=O)c2ccc(C)c(NC(=O)c3ccno3)c2)cc(C(F)(F)F)c1 [QL-XI-92]; conditions: top dose 10.24 µM; top dose inferred
Protocol: as §1

[7] = compound: O=c1cc(CN2CCOCC2)occ1OCCCCCSc1ccnc2cc(C(F)(F)F)ccc12 [EHT 1864]; conditions: top dose 10 µM; top dose inferred
Protocol: as §1

[8] = compound: CNCc1ccc(-c2[nH]c3cc(F)cc4c3c2CCNC4=O)cc1 [AG-014699]; conditions: top dose 5 µM; top dose inferred
Protocol: as §1

[9] = compound: COc1cc2ncnc(Nc3cc(Br)c(O)c(Br)c3)c2cc1OC [WHI-P97]; conditions: top dose 10.24 µM; top dose inferred
Protocol: as §1

Row | Cell Line | AUC [1] | pIC50 [1] | AUC [2] | pIC50 [2] | AUC [3] | pIC50 [3] | AUC [4] | pIC50 [4] | AUC [5] | pIC50 [5] | AUC [6] | pIC50 [6] | AUC [7] | pIC50 [7] | AUC [8] | pIC50 [8] | AUC [9] | pIC50 [9]
1 | NCI-H2291 (lung adenocarcinoma, adherent) | 0.98 | < 7.19 | 0.979 | < 2.40 | 0.978 | < 6.30 | 0.984 | < 5.29 | 0.946 | < 5.70 | 0.982 | < 4.99 | 0.97 | < 5.00 | 0.944 | < 5.30 | 0.981 | < 4.99
2 | NCI-H2347 (lung adenocarcinoma, adherent) | 0.751 | 7.60 | 0.806 | 2.59 | 0.978 | < 6.30 | 0.839 | 5.34 | 0.914 | < 5.70 | 0.972 | < 4.99 | 0.968 | < 5.00 | 0.95 | < 5.30 | 0.98 | < 4.99
3 | NCI-H2405 (lung adenocarcinoma, adherent) | 0.834 | 7.32 | 0.854 | 2.43 | 0.959 | < 6.30 | 0.942 | < 5.29 | 0.976 | < 5.70 | 0.953 | < 4.99 | 0.973 | < 5.00 | 0.919 | < 5.30 | 0.948 | < 4.99
4 | NCI-H2444 (non-small cell lung carcinoma, adherent) | 0.928 | < 7.19 | 0.908 | < 2.40 | 0.988 | < 6.30 | 0.963 | < 5.29 | 0.978 | < 5.70 | 0.987 | < 4.99 | 0.988 | < 5.00 | 0.988 | < 5.30 | 0.986 | < 4.99
5 | NCI-H2452 (mesothelioma, adherent) | 0.966 | < 7.19 | 0.934 | < 2.40 | 0.981 | < 6.30 | 0.984 | < 5.29 | 0.957 | < 5.70 | 0.984 | < 4.99 | 0.929 | < 5.00 | 0.95 | < 5.30 | 0.984 | < 4.99
6 | NCI-H3122 (lung adenocarcinoma, adherent) | 0.397 | 8.69 | 0.656 | 3.16 | 0.982 | < 6.30 | 0.948 | < 5.29 | 0.982 | < 5.70 | 0.974 | < 4.99 | 0.987 | < 5.00 | 0.986 | < 5.30 | 0.98 | < 4.99
7 | NUGC-4 (stomach, adherent) | 0.801 | 7.50 | 0.978 | < 2.40 | 0.859 | 6.38 | 0.87 | 5.32 | 0.977 | < 5.70 | 0.987 | < 4.99 | 0.974 | < 5.00 | 0.988 | < 5.30 | 0.577 | 5.98
8 | NY (osteosarcoma, adherent) | 0.547 | 8.27 | 0.967 | < 2.40 | 0.976 | < 6.30 | 0.988 | < 5.29 | 0.957 | < 5.70 | 0.989 | < 4.99 | 0.959 | < 5.00 | 0.955 | < 5.30 | 0.979 | < 4.99
9 | OAW-42 (ovary, adherent) | 0.824 | – | 0.78 | 2.75 | 0.871 | < 6.30 | 0.951 | < 5.29 | 0.936 | < 5.70 | 0.982 | < 4.99 | 0.952 | < 5.00 | 0.957 | < 5.30 | 0.959 | < 4.99
10 | OCUM-1 (stomach, adherent) | 0.863 | < 7.19 | 0.929 | < 2.40 | 0.985 | < 6.30 | 0.982 | < 5.29 | 0.983 | < 5.70 | 0.987 | < 4.99 | 0.978 | < 5.00 | 0.981 | < 5.30 | 0.986 | < 4.99
11 | OE19 (oesophagus, adherent) | 0.68 | 7.86 | 0.741 | 2.87 | 0.971 | < 6.30 | 0.986 | < 5.29 | 0.937 | < 5.70 | 0.986 | < 4.99 | 0.986 | < 5.00 | 0.984 | < 5.30 | 0.983 | < 4.99
12 | OE21 (oesophagus, adherent) | 0.517 | 8.34 | 0.834 | < 2.40 | 0.793 | 6.48 | 0.961 | < 5.29 | 0.941 | < 5.70 | 0.963 | < 4.99 | 0.938 | < 5.00 | 0.978 | < 5.30 | 0.92 | < 4.99
13 | OE33 (oesophagus, adherent) | 0.684 | 7.84 | 0.979 | < 2.40 | 0.971 | < 6.30 | 0.719 | 5.82 | 0.963 | < 5.70 | 0.974 | < 4.99 | 0.955 | < 5.00 | 0.969 | < 5.30 | 0.979 | < 4.99
14 | OSC-20 (head and neck, adherent) | 0.653 | 7.94 | 0.841 | 2.45 | 0.865 | < 6.30 | 0.892 | < 5.29 | 0.955 | < 5.70 | 0.943 | < 4.99 | 0.957 | < 5.00 | 0.919 | < 5.30 | 0.972 | < 4.99
15 | OV-90 (ovary, adherent) | 0.748 | 7.59 | 0.579 | 3.36 | 0.978 | < 6.30 | 0.966 | < 5.29 | 0.956 | < 5.70 | 0.972 | < 4.99 | 0.941 | < 5.00 | 0.982 | < 5.30 | 0.977 | < 4.99
